Measured values from the supplement of paper PMC4604168 (melanoma cell lines).
Some of the results follow. Many values rest on one well or one pass, so single values are uncertain.

system: SkMel28; experiment: cell count relative to DMSO control; melanoma cells; higher = more viable cells; conditions: library dose: standard library concentration; 72 h
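Note: cells treated in 1,536-well plates, then fixed and DAPI-stained, with nuclei counted from automated high-throughput microscope images.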

| Compound | cell count [%] |
| --- | --- |
| Cc1ccc(Nc2nccc(N(C)c3ccc4c(C)n(C)nc4c3)n2)cc1S(N)(=O)=O [Pazopanib] + CC(C)CCN1c2nc(Nc3cc(F)c(O)c(F)c3)ncc2N(C)C(=O)C1C [BID1870] (first compound 2 µM, partner dose 1 µM) | 49.5 |
| Cc1ccc(Nc2nccc(N(C)c3ccc4c(C)n(C)nc4c3)n2)cc1S(N)(=O)=O [Pazopanib] + CCc1ccc(CCOc2ccc(CC3SC(=O)NC3=O)cc2)nc1 [pioglitazone] (first compound 2 µM, partner dose 10 µM) | 66.1 |
| O=C(/C=C/c1cccnc1)NCCCCC1CCN(C(=O)c2ccccc2)CC1 + O=C1NC(=O)/C(=C/c2ccc(-c3ccc(F)cc3O)o2)S1 [AS252424] (first compound 0.05 µM, partner dose 5 µM) | 94.1 |
| O=C(/C=C/c1cccnc1)NCCCCC1CCN(C(=O)c2ccccc2)CC1 + COc1ccc2c(c1)CCC1C2CCC2(C)C(NCCCCCCN3C(=O)C=CC3=O)CCC12 [U73122] (first compound 0.05 µM, partner dose 2 µM) | 107 |
| O=C(/C=C/c1cccnc1)NCCCCC1CCN(C(=O)c2ccccc2)CC1 + CCN(CC)CCCCNc1ncc2cc(-c3cc(OC)cc(OC)c3)c(NC(=O)NC(C)(C)C)nc2n1 [PD173074] (first compound 0.05 µM, partner dose 0.5 µM) | 86.2 |
| CC1(C)CCC(c2ccc(Cl)cc2)=C(CN2CCN(c3ccc(C(=O)NS(=O)(=O)c4ccc(N[C@H](CCN5CCOCC5)CSc5ccccc5)c(S(=O)(=O)C(F)(F)F)c4)cc3)CC2)C1 + O=C1NC(=O)/C(=C/c2ccc(-c3ccc(F)cc3O)o2)S1 [AS252424] (first compound 2 µM, partner dose 5 µM) | 112 |
| Cc1ccc(Nc2nccc(N(C)c3ccc4c(C)n(C)nc4c3)n2)cc1S(N)(=O)=O [Pazopanib] + Oc1cc(-c2nc(-c3ccccc3)[nH]c2-c2ccncc2)ccc1Cl [L779450] (first compound 2 µM, partner dose 1 µM) | 44.2 |
| CC1(C)CCC(c2ccc(Cl)cc2)=C(CN2CCN(c3ccc(C(=O)NS(=O)(=O)c4ccc(N[C@H](CCN5CCOCC5)CSc5ccccc5)c(S(=O)(=O)C(F)(F)F)c4)cc3)CC2)C1 + COc1ccc2c(c1)CCC1C2CCC2(C)C(NCCCCCCN3C(=O)C=CC3=O)CCC12 [U73122] (first compound 2 µM, partner dose 2 µM) | 73.2 |
| Cc1ccc(Nc2nccc(N(C)c3ccc4c(C)n(C)nc4c3)n2)cc1S(N)(=O)=O [Pazopanib] + O=C1NC(=O)/C(=C/c2ccc(-c3ccc(F)cc3O)o2)S1 [AS252424] (first compound 2 µM, partner dose 5 µM) | 96.1 |
| O=C(/C=C/c1cccnc1)NCCCCC1CCN(C(=O)c2ccccc2)CC1 + O=c1cc(-c2cccc3c2Sc2ccccc2S3)oc(N2CCOCC2)c1 [KU55933] (first compound 0.05 µM, partner dose 5 µM) | 57.9 |
| Cc1ccc(Nc2nccc(N(C)c3ccc4c(C)n(C)nc4c3)n2)cc1S(N)(=O)=O [Pazopanib] + N#Cc1c(O)c2c(-c3ccc(-c4ccccc4O)cc3)csc2[nH]c1=O [A769662] (first compound 2 µM, partner dose 10 µM) | 124 |
| O=C(/C=C/c1cccnc1)NCCCCC1CCN(C(=O)c2ccccc2)CC1 + Oc1cc(-c2nc(-c3ccccc3)[nH]c2-c2ccncc2)ccc1Cl [L779450] (first compound 0.05 µM, partner dose 1 µM) | 60.2 |
| CC1(C)CCC(c2ccc(Cl)cc2)=C(CN2CCN(c3ccc(C(=O)NS(=O)(=O)c4ccc(N[C@H](CCN5CCOCC5)CSc5ccccc5)c(S(=O)(=O)C(F)(F)F)c4)cc3)CC2)C1 + O=C(Nc1ccccc1)c1cc([N+](=O)[O-])ccc1Cl [GW9662] (first compound 2 µM, partner dose 10 µM) | 51.9 |
| CC1(C)CCC(c2ccc(Cl)cc2)=C(CN2CCN(c3ccc(C(=O)NS(=O)(=O)c4ccc(N[C@H](CCN5CCOCC5)CSc5ccccc5)c(S(=O)(=O)C(F)(F)F)c4)cc3)CC2)C1 + CC(C)CCN1c2nc(Nc3cc(F)c(O)c(F)c3)ncc2N(C)C(=O)C1C [BID1870] (first compound 2 µM, partner dose 1 µM) | 58.7 |
| Cc1ccc(Nc2nccc(N(C)c3ccc4c(C)n(C)nc4c3)n2)cc1S(N)(=O)=O [Pazopanib] + COc1ccc2c(c1)CCC1C2CCC2(C)C(NCCCCCCN3C(=O)C=CC3=O)CCC12 [U73122] (first compound 2 µM, partner dose 2 µM) | 110 |
| CC1(C)CCC(c2ccc(Cl)cc2)=C(CN2CCN(c3ccc(C(=O)NS(=O)(=O)c4ccc(N[C@H](CCN5CCOCC5)CSc5ccccc5)c(S(=O)(=O)C(F)(F)F)c4)cc3)CC2)C1 + COc1ccc(-c2ccc3c(N4CCOCC4)nc(N4C[C@@H](C)O[C@@H](C)C4)nc3n2)cc1CO [KU0063794] (first compound 2 µM, partner dose 0.1 µM) | 53.1 |
| CC1(C)CCC(c2ccc(Cl)cc2)=C(CN2CCN(c3ccc(C(=O)NS(=O)(=O)c4ccc(N[C@H](CCN5CCOCC5)CSc5ccccc5)c(S(=O)(=O)C(F)(F)F)c4)cc3)CC2)C1 + CCN(CC)CCCCNc1ncc2cc(-c3cc(OC)cc(OC)c3)c(NC(=O)NC(C)(C)C)nc2n1 [PD173074] (first compound 2 µM, partner dose 0.5 µM) | 89.8 |
| CC1(C)CCC(c2ccc(Cl)cc2)=C(CN2CCN(c3ccc(C(=O)NS(=O)(=O)c4ccc(N[C@H](CCN5CCOCC5)CSc5ccccc5)c(S(=O)(=O)C(F)(F)F)c4)cc3)CC2)C1 + Oc1cc(-c2nc(-c3ccccc3)[nH]c2-c2ccncc2)ccc1Cl [L779450] (first compound 2 µM, partner dose 1 µM) | 33.6 |
| CC1(C)CCC(c2ccc(Cl)cc2)=C(CN2CCN(c3ccc(C(=O)NS(=O)(=O)c4ccc(N[C@H](CCN5CCOCC5)CSc5ccccc5)c(S(=O)(=O)C(F)(F)F)c4)cc3)CC2)C1 + O=c1cc(-c2cccc3c2Sc2ccccc2S3)oc(N2CCOCC2)c1 [KU55933] (first compound 2 µM, partner dose 5 µM) | 63.5 |
| O=C(/C=C/c1cccnc1)NCCCCC1CCN(C(=O)c2ccccc2)CC1 + c1cc(-c2cnn3cc(-c4ccc(OCCN5CCCCC5)cc4)cnc23)ccn1 [Dorsomorphin] (first compound 0.05 µM, partner dose 2 µM) | 109 |
| Cc1ccc(Nc2nccc(N(C)c3ccc4c(C)n(C)nc4c3)n2)cc1S(N)(=O)=O [Pazopanib] + O=C(O)C(=O)Nc1sc2c(c1C(=O)O)CCNC2 [TCS401] (first compound 2 µM, partner dose 8.33333 µM) | 95.2 |
| Cc1ccc(Nc2nccc(N(C)c3ccc4c(C)n(C)nc4c3)n2)cc1S(N)(=O)=O [Pazopanib] + COc1ccc(-c2ccc3c(N4CCOCC4)nc(N4C[C@@H](C)O[C@@H](C)C4)nc3n2)cc1CO [KU0063794] (first compound 2 µM, partner dose 0.1 µM) | 73.6 |
| Cc1ccc(Nc2nccc(N(C)c3ccc4c(C)n(C)nc4c3)n2)cc1S(N)(=O)=O [Pazopanib] + Cc1cc([N+](=O)[O-])ccc1NS(=O)(=O)c1cc(Cl)ccc1Cl [FH535] (first compound 2 µM, partner dose 5 µM) | 52.9 |
| O=C(/C=C/c1cccnc1)NCCCCC1CCN(C(=O)c2ccccc2)CC1 + Oc1nc(-c2ccc(C(F)(F)F)cc2)nc2c1CSCC2 [XAV939] (first compound 0.05 µM, partner dose 10 µM) | 52.5 |
| CC1(C)CCC(c2ccc(Cl)cc2)=C(CN2CCN(c3ccc(C(=O)NS(=O)(=O)c4ccc(N[C@H](CCN5CCOCC5)CSc5ccccc5)c(S(=O)(=O)C(F)(F)F)c4)cc3)CC2)C1 + COc1ccc(COc2ccc(Cc3cnc(N)nc3N)cc2OC)cc1 [GW2580] (first compound 2 µM, partner dose 5 µM) | 76 |
| O=C(/C=C/c1cccnc1)NCCCCC1CCN(C(=O)c2ccccc2)CC1 + NCC(=O)Nc1ccc(-n2nc(C(F)(F)F)cc2-c2ccc3c(ccc4ccccc43)c2)cc1 [OSU03012] (first compound 0.05 µM, partner dose 5 µM) | 33.4 |
| CC1(C)CCC(c2ccc(Cl)cc2)=C(CN2CCN(c3ccc(C(=O)NS(=O)(=O)c4ccc(N[C@H](CCN5CCOCC5)CSc5ccccc5)c(S(=O)(=O)C(F)(F)F)c4)cc3)CC2)C1 + O=C(Nc1cccc(Cl)c1)Nc1ncc(CCNc2ncnc3ccsc23)s1 [SNS314] (first compound 2 µM, partner dose 0.004 µM) | 37.9 |
| CC1(C)CCC(c2ccc(Cl)cc2)=C(CN2CCN(c3ccc(C(=O)NS(=O)(=O)c4ccc(N[C@H](CCN5CCOCC5)CSc5ccccc5)c(S(=O)(=O)C(F)(F)F)c4)cc3)CC2)C1 + Oc1nc(-c2ccc(C(F)(F)F)cc2)nc2c1CSCC2 [XAV939] (first compound 2 µM, partner dose 10 µM) | 44 |
| O=C(/C=C/c1cccnc1)NCCCCC1CCN(C(=O)c2ccccc2)CC1 + O=C(O)C(=O)Nc1sc2c(c1C(=O)O)CCNC2 [TCS401] (first compound 0.05 µM, partner dose 8.33333 µM) | 74.3 |
